# Experimental data from PubChem BioAssay (NCI).
#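 Results reflect a 48-hour exposure of cells in 96-well plates to compound at five concentrations. Here, GI50 denotes the concentration required for 50% inhibition of growth. TGI is the concentration that stops growth completely.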
# Test system: NCI-H322M lung
# Test: NCI anticancer screen, dose series, 48 h
SMILES,GI50,TGI
CC(C)[C@]12O[C@H]1[C@@H]1O[C@]13[C@]1(O[C@H]1C[C@H]1C4=C(CC[C@@]13C)C(=O)OC4)[C@@H]2OC(=O)OC(C)(C)C,20.4 nM,> 100000 nM
COc1ccc2c(c1)OC(N)=C(C#N)C2c1ccc(F)c(F)c1 (configuration not stated),1890 nM,> 100000 nM
CN1CCN(C(=O)OCc2nc3c(N4CCOCC4)nc(-c4ccccc4)nc3n2C)CC1,1470 nM,2860 nM
CN1C(=O)CNS1(=O)=O,,> 100000 nM
